Data published in PubChem BioAssay (NCI).
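Cultured in 96-well plates, cells were exposed to test compound for 48 hours across five concentrations. TGI is the concentration that stops growth completely.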

Tests used:
Assay in all cases: NCI tumour cell line growth inhibition, 48 h
HOP-62 NSCLC = system: HOP-62 NSCLC
MCF7 breast = system: MCF7 breast
COLO 205 colon = system: COLO 205 colon
UACC-62 melanoma = system: UACC-62 melanoma
MOLT-4 leukemia = system: MOLT-4 leukemia
SK-MEL-2 melanoma = system: SK-MEL-2 melanoma
EKVX NSCLC = system: EKVX NSCLC
NCI-H226 lung = system: NCI-H226 lung
ACHN renal = system: ACHN renal
HS 578T breast = system: HS 578T breast
HOP-18 NSCLC = system: HOP-18 NSCLC
PC-3 prostate = system: PC-3 prostate
TK-10 renal = system: TK-10 renal
UACC-257 melanoma = system: UACC-257 melanoma
HL-60(TB) leukemia = system: HL-60(TB) leukemia
SK-OV-3 ovarian = system: SK-OV-3 ovarian
786-0 renal = system: 786-0 renal
HCT-116 colon = system: HCT-116 colon
A549 NSCLC = system: A549 NSCLC
SF-268 CNS = system: SF-268 CNS
SR leukemia = system: SR leukemia
MDA-N = system: MDA-N
LXFL 529 NSCLC = system: LXFL 529 NSCLC
SN12C renal = system: SN12C renal
IGROV1 ovarian = system: IGROV1 ovarian
OVCAR-5 ovarian = system: OVCAR-5 ovarian
SK-MEL-5 melanoma = system: SK-MEL-5 melanoma
HCT-15 colon = system: HCT-15 colon
U251 CNS = system: U251 CNS
HCC-2998 colon = system: HCC-2998 colon
UO-31 renal = system: UO-31 renal
OVCAR-4 ovarian = system: OVCAR-4 ovarian
KM12 colon = system: KM12 colon
K-562 leukemia = system: K-562 leukemia
T-47D breast = system: T-47D breast
NCI-H522 lung = system: NCI-H522 lung
M14 melanoma = system: M14 melanoma
NCI-H23 lung = system: NCI-H23 lung
OVCAR-3 ovarian = system: OVCAR-3 ovarian
SNB-19 CNS = system: SNB-19 CNS
HT29 colon = system: HT29 colon
RXF 393 renal = system: RXF 393 renal
NCI-H460 lung = system: NCI-H460 lung
CCRF-CEM leukemia = system: CCRF-CEM leukemia
HOP-92 NSCLC = system: HOP-92 NSCLC
DMS 273 small cell lung = system: DMS 273 small cell lung
A498 renal = system: A498 renal
SNB-75 CNS = system: SNB-75 CNS
LOX IMVI melanoma = system: LOX IMVI melanoma
OVCAR-8 ovarian = system: OVCAR-8 ovarian
SF-539 CNS = system: SF-539 CNS
CAKI-1 renal = system: CAKI-1 renal
NCI/ADR-RES ovarian = system: NCI/ADR-RES ovarian
SW-620 colon = system: SW-620 colon
SF-295 CNS = system: SF-295 CNS
MALME-3M melanoma = system: MALME-3M melanoma
M19-MEL melanoma = system: M19-MEL melanoma
MDA-MB-231 breast = system: MDA-MB-231 breast
SK-MEL-28 melanoma = system: SK-MEL-28 melanoma
RPMI-8226 leukemia = system: RPMI-8226 leukemia

Compound: CN[C@H]1CCc2cc(OC)c(OC)c(OC)c2-c2ccc(SC)c(=O)cc21
- TGI (HOP-62 NSCLC): 84 µM
- TGI (MCF7 breast): 22 µM
- TGI (COLO 205 colon): 0.0464 µM
- TGI (UACC-62 melanoma): 34.3 µM
- TGI (MOLT-4 leukemia): > 100 µM
- TGI (SK-MEL-2 melanoma): 10.9 µM
- TGI (EKVX NSCLC): > 100 µM
- TGI (NCI-H226 lung): 0.86 µM
- TGI (ACHN renal): 81.1 µM
- TGI (HS 578T breast): 4.64 µM
- TGI (HOP-18 NSCLC): > 100 µM
- TGI (PC-3 prostate): > 100 µM
- TGI (TK-10 renal): 98.9 µM
- TGI (UACC-257 melanoma): > 100 µM
- TGI (HL-60(TB) leukemia): 0.0132 µM
- TGI (SK-OV-3 ovarian): > 100 µM
- TGI (786-0 renal): 53.9 µM
- TGI (HCT-116 colon): 27.5 µM
- TGI (A549 NSCLC): > 100 µM
- TGI (SF-268 CNS): 87.9 µM
- TGI (SR leukemia): 2.51 µM
- TGI (MDA-N): > 100 µM
- TGI (LXFL 529 NSCLC): > 100 µM
- TGI (SN12C renal): > 100 µM
- TGI (IGROV1 ovarian): > 100 µM
- TGI (OVCAR-5 ovarian): 97.1 µM
- TGI (SK-MEL-5 melanoma): 0.161 µM
- TGI (HCT-15 colon): 29.4 µM
- TGI (U251 CNS): 22.1 µM
- TGI (HCC-2998 colon): 24.1 µM
- TGI (UO-31 renal): > 100 µM
- TGI (OVCAR-4 ovarian): > 100 µM
- TGI (KM12 colon): 0.116 µM
- TGI (K-562 leukemia): > 100 µM
- TGI (T-47D breast): > 100 µM
- TGI (NCI-H522 lung): 0.0118 µM
- TGI (M14 melanoma): 24.4 µM
- TGI (NCI-H23 lung): 2.04 µM
- TGI (OVCAR-3 ovarian): 0.158 µM
- TGI (SNB-19 CNS): > 100 µM
- TGI (HT29 colon): 0.371 µM
- TGI (RXF 393 renal): 74 µM
- TGI (NCI-H460 lung): 21.5 µM
- TGI (CCRF-CEM leukemia): 61.3 µM
- TGI (HOP-92 NSCLC): 15.9 µM
- TGI (DMS 273 small cell lung): > 100 µM
- TGI (A498 renal): 7.94 µM
- TGI (SNB-75 CNS): 68.4 µM
- TGI (LOX IMVI melanoma): 65 µM
- TGI (OVCAR-8 ovarian): 4.47 µM
- TGI (SF-539 CNS): 0.0332 µM
- TGI (CAKI-1 renal): 85.1 µM
- TGI (NCI/ADR-RES ovarian): > 100 µM
- TGI (SW-620 colon): > 100 µM
- TGI (SF-295 CNS): 0.0363 µM
- TGI (MALME-3M melanoma): > 100 µM
- TGI (M19-MEL melanoma): > 100 µM
- TGI (MDA-MB-231 breast): 4.64 µM
- TGI (SK-MEL-28 melanoma): > 100 µM
- TGI (RPMI-8226 leukemia): 54.9 µM
